The values below come from paper PMC12136788.

The list shows a part of the results.

The chains are these.
T1: UNK ZnF1-3 (human, UniProt Q9C0B0 31-174)
T1 sequence: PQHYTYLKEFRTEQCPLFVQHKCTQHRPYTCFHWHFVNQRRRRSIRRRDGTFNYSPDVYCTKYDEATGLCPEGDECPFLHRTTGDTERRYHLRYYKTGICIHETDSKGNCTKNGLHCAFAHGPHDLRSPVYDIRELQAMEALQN

B1: chr12:103220247:103220248:+_ENSMUSG00000041781_ENSMUST00000047357|mus_hu|motif|central (ssRNA)
RNA: GGGAGUUCUACAGUCCGACGAUCCAGGGAAUCAAUAAUAUCCAUAGAAAAGUGCUCAUCCCAGCCACAGUCCAAUAAAAAUCGGAACUCAUCAACUUGGAGAAGAUAGCAAAGGGCAGAUUCUUCUUGGACCCCAGAAAGGGUCAACAGAGGAUUGAGCAUCA
B2: chr16:45382771:45382772:-_ENSMUSG00000022661_ENSMUST00000163230|mus_mus|mus_mus_mus_hu_True|1_108 (ssRNA)
RNA: GGGAGUUCUACAGUCCGACGAUCCUGAGUGUUAUUGUAAGACAAAUGGACAGGGAGGGCAUGCUUCUCAAAAAAUGUGAGCUAUUGUCUAAGACUAACAAUAUUUAUCUAGCUAUAAAAAUAAGUUAAAUGAAUAAACAUUACCAACAGAGGAUUGAGCAUCA
B3: chr7:54825262:54825263:-_ENSG00000132432_ENST00000352861|hu_hu|hu_hu_hu_mus_False|68_88 (ssRNA)
RNA: GGGAGUUCUACAGUCCGACGAUCCUGCCGGCUGGGCUCCACAAACUUUACCUGAUCAUCCAUGUUUUACCCAACCGGGAUUGAGAGCGUAGAGACACGUAGCUCAGGAGAGAACCGAGCCCAACGGAACCGGAAGCUGGCAACCAACAGAGGAUUGAGCAUCA
B4: chr4:25749455:25749456:-_ENSG00000091490_ENST00000264868|hu_hu|hu_hu_hu_mus_False|28_68 (ssRNA)
RNA: GGGAGUUCUACAGUCCGACGAUCGCACUAUGACCUCUAGAAAAAUCCACAGGGGGAAAAAAUGUAAACCAAUUUACAAUGUUAUCGCCUUCCCUGUGUGUGGAGUGACAAACAAUUGGCUCCUUCUAGCUGCUGGAUUUGGGACAACAGAGGAUUGAGCAUCA
B5: chrX:71549400:71549401:+_ENSMUSG00000019087_ENSMUST00000019231|mus_hu|mus_mus_mus_hu_False|48_78 (ssRNA)
RNA: GGGAGUUCUACAGUCCGACGAUCGCAGUAGGAAGAGGGAAGCUCUUCAGUCCAGUGGUCACAAAACUGGGAAAGCAACAACACGGAACCAAUACUCCCCUCAACCCCCCCACUGGCACAGGGUCACACAAUCUGGGUCAAAGACAACAGAGGAUUGAGCAUCA
B6: 100042488_100045678_4628_CDS_ENSMUSG00000023026_ENSMUST00000100203|mouse|control|control (ssRNA)
RNA: GGGAGUUCUACAGUCCGACGAUCCAGGGCUUCCUGUUCAGAGCCGCAUAGUUCCACAACGACCACCAGCAAGUUGGUCCACGUGAACACAGCACAUUCAGCAAUGCUCCUGUGGACGCGGGACACGGAGGUCUCUAUAUCGAUCAACAGAGGAUUGAGCAUCA

This assay has as its target T1, UNK ZnF1-3. The assay is described as follows: nsRBNS (natural sequence RNA bind-n-seq); RBNS binding buffer (assumed for nsRBNS): 25 mM Tris pH 7.5, 150 mM KCl, 3 mM MgCl2, 0.01% Triton X-100, 500 ug/ml BSA, 20 U/ml SUPERase-In, 4 C; UNK is unkempt and MSI1 is Musashi-1; names of the RNAs are library labels; protein concentration not given here; high values mean tight binding.
The molecule B1 gave a binding signal of 1.62 enrichment R.

With B2, the binding signal turned out to be 1.79 enrichment R. In the case of B3 it was 1.11 enrichment R; in that of B4, 0.989 enrichment R.

On to B5, for which the binding signal stood at 2.34 enrichment R.

On to B6, for which the binding signal was 0.446 enrichment R.
